# In the supplement of paper PMC8728848:
# The other results are listed elsewhere or left out.
# B1: BTL (Bryothamnion triquetrum) (protein)
# chain: ADPICGSSGYSCTTPAILTPKSPGSFPSGYSKVIVTGVGGSYSVYIHRPDGFKVYKASEGGCASFGSYSGGGNSEVGKYGSGGTVVAVACK
# Tests used:
# Assay in all cases: glycan array binding signal (z-score within array); higher = stronger binding
# Conditions in all cases: glycan notation: IUPAC condensed, linker removed
# [1] = biological target: Fuc(a1-2)[GalNAc(b1-3)]Gal
# In short: (§1)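 From the Consortium for Functional Glycomics database, 3228 arrays were curated, keeping only those whose protein sequence was available. Binding is given as a within-array Z-score averaged across arrays sharing a protein sequence and across linkers. Negative Z-scores can be read as non-binding.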
# [2] = biological target: Fuc(a1-3)GlcNAc
# In short: as §1
# [3] = biological target: Fuc(a1-3)[Gal(b1-4)]Glc6S
# In short: as §1
# [4] = biological target: Fuc(a1-3)[Gal(b1-4)]GlcNAc
# In short: as §1
# [5] = biological target: Fuc(a1-3)[Gal(b1-4)]GlcNAc(b1-2)Man
# In short: as §1
# [6] = biological target: Fuc(a1-3)[Gal(b1-4)]GlcNAc(b1-2)Man(a1-3)[Fuc(a1-3)[Gal(b1-4)]GlcNAc(b1-2)Man(a1-6)]Man(b1-4)GlcNAc(b1-4)GlcNAc
# In short: as §1
# [7] = biological target: Fuc(a1-3)[Gal(b1-4)]GlcNAc(b1-2)Man(a1-3)[Fuc(a1-3)[Gal(b1-4)]GlcNAc(b1-2)Man(a1-6)]Man(b1-4)GlcNAc(b1-4)[Fuc(a1-6)]GlcNAc
# In short: as §1
# [8] = biological target: Fuc(a1-3)[Gal(b1-4)]GlcNAc(b1-3)Gal(b1-3)[Fuc(a1-4)]GlcNAc
# In short: as §1
# [9] = biological target: Fuc(a1-3)[Gal(b1-4)]GlcNAc(b1-3)Gal(b1-4)[Fuc(a1-3)]GlcNAc
# In short: as §1
# [10] = biological target: Fuc(a1-3)[Gal(b1-4)]GlcNAc(b1-3)Gal(b1-4)[Fuc(a1-3)]GlcNAc(b1-3)Gal(b1-4)[Fuc(a1-3)]GlcNAc
# In short: as §1
# [11] = biological target: Fuc(a1-3)[Gal(b1-4)]GlcNAc(b1-3)GalNAc
# In short: as §1
# [12] = biological target: Fuc(a1-3)[Gal(b1-4)]GlcNAc(b1-6)GalNAc
# In short: as §1
# [13] = biological target: Fuc(a1-3)[Gal(b1-4)]GlcNAc(b1-6)[Gal(b1-3)GlcNAc(b1-3)]Gal(b1-4)Glc
# In short: as §1
# [14] = biological target: Fuc(a1-3)[Gal(b1-4)]GlcNAc6S
# In short: as §1
# [15] = biological target: Fuc(a1-3)[Gal3S(b1-4)]Glc
# In short: as §1
# [16] = biological target: Fuc(a1-3)[Gal3S(b1-4)]GlcNAc
# In short: as §1
# [17] = biological target: Fuc(a1-3)[Gal3S(b1-4)]GlcNAc6S
# In short: as §1
# [18] = biological target: Fuc(a1-3)[GalNAc(b1-4)]GlcNAc
# In short: as §1
# [19] = biological target: Fuc(a1-3)[GalNAc(b1-4)]GlcNAc6S
# In short: as §1
# [20] = biological target: Fuc(a1-4)GlcNAc
# In short: as §1
# [21] = biological target: Fuc(b1-3)GlcNAc
# In short: as §1
# [22] = biological target: Gal(a1-2)Gal
# In short: as §1
# [23] = biological target: Gal(a1-3)Gal
# In short: as §1
# [24] = biological target: Gal(a1-3)Gal(b1-3)GlcNAc
# In short: as §1
# [25] = biological target: Gal(a1-3)Gal(b1-3)GlcNAc(b1-2)Man
# In short: as §1
# [26] = biological target: Gal(a1-3)Gal(b1-3)GlcNAc(b1-2)Man(a1-3)[Gal(a1-3)Gal(b1-3)GlcNAc(b1-2)Man(a1-6)]Man(b1-4)GlcNAc(b1-4)GlcNAc
# In short: as §1
# [27] = biological target: Gal(a1-3)Gal(b1-3)GlcNAc(b1-3)GalNAc
# In short: as §1
# [28] = biological target: Gal(a1-3)Gal(b1-3)GlcNAc(b1-6)GalNAc
# In short: as §1
# [29] = biological target: Gal(a1-3)Gal(b1-3)[Fuc(a1-4)]GlcNAc(b1-2)Man(a1-3)[Gal(a1-3)Gal(b1-3)[Fuc(a1-4)]GlcNAc(b1-2)Man(a1-6)]Man(b1-4)GlcNAc(b1-4)GlcNAc
# In short: as §1
# [30] = biological target: Gal(a1-3)Gal(b1-4)Glc
# In short: as §1
# [31] = biological target: Gal(a1-3)Gal(b1-4)GlcNAc
# In short: as §1
# [32] = biological target: Gal(a1-3)Gal(b1-4)GlcNAc(b1-2)Man
# In short: as §1
# [33] = biological target: Gal(a1-3)Gal(b1-4)GlcNAc(b1-2)Man(a1-3)[Gal(a1-3)Gal(b1-4)GlcNAc(b1-2)Man(a1-6)]Man(b1-4)GlcNAc(b1-4)GlcNAc
# In short: as §1
# [34] = biological target: Gal(a1-3)Gal(b1-4)GlcNAc(b1-3)GalNAc
# In short: as §1
# [35] = biological target: Gal(a1-3)Gal(b1-4)GlcNAc(b1-6)GalNAc
# In short: as §1
# [36] = biological target: Gal(a1-3)Gal(b1-4)[Fuc(a1-3)]GlcNAc
# In short: as §1
# [37] = biological target: Gal(a1-3)Gal(b1-4)[Fuc(a1-3)]GlcNAc(b1-2)Man(a1-3)[Gal(a1-3)Gal(b1-4)[Fuc(a1-3)]GlcNAc(b1-2)Man(a1-6)]Man(b1-4)GlcNAc(b1-4)GlcNAc
# In short: as §1
# [38] = biological target: Gal(a1-3)GalNAc
# In short: as §1
# [39] = biological target: Gal(a1-3)[Gal(a1-4)]Gal(b1-4)GlcNAc
# In short: as §1
# [40] = biological target: Gal(a1-4)Gal(b1-3)GlcNAc(b1-2)Man(a1-3)[Gal(a1-4)Gal(b1-3)GlcNAc(b1-2)Man(a1-6)]Man(b1-4)GlcNAc(b1-4)GlcNAc
# In short: as §1
# [41] = biological target: Gal(a1-4)Gal(b1-4)Glc
# In short: as §1
# [42] = biological target: Gal(a1-4)Gal(b1-4)GlcNAc
# In short: as §1
# [43] = biological target: Gal(a1-4)Gal(b1-4)GlcNAc(b1-2)Man(a1-3)[Gal(a1-4)Gal(b1-4)GlcNAc(b1-2)Man(a1-6)]Man(b1-4)GlcNAc(b1-4)GlcNAc
# In short: as §1
# [44] = biological target: Gal(a1-4)Gal(b1-4)GlcNAc(b1-3)Gal(b1-4)Glc
# In short: as §1
# [45] = biological target: Gal(a1-4)GlcNAc
# In short: as §1
binder,measurement,setting,value
B1,glycan array binding signal (z-score),[1],-0.303
same,glycan array binding signal (z-score),[2],-0.258
same,glycan array binding signal (z-score),[3],-0.237
same,glycan array binding signal (z-score),[4],-0.24
same,glycan array binding signal (z-score),[5],-0.242
same,glycan array binding signal (z-score),[6],-0.202
same,glycan array binding signal (z-score),[7],0.176
same,glycan array binding signal (z-score),[8],-0.303
same,glycan array binding signal (z-score),[9],-0.241
same,glycan array binding signal (z-score),[10],-0.297
same,glycan array binding signal (z-score),[11],-0.216
same,glycan array binding signal (z-score),[12],-0.215
same,glycan array binding signal (z-score),[13],-0.263
same,glycan array binding signal (z-score),[14],-0.154
same,glycan array binding signal (z-score),[15],-0.25
same,glycan array binding signal (z-score),[16],-0.266
same,glycan array binding signal (z-score),[17],-0.203
same,glycan array binding signal (z-score),[18],-0.188
same,glycan array binding signal (z-score),[19],-0.241
same,glycan array binding signal (z-score),[20],-0.199
same,glycan array binding signal (z-score),[21],-0.257
same,glycan array binding signal (z-score),[22],-0.276
same,glycan array binding signal (z-score),[23],-0.219
same,glycan array binding signal (z-score),[24],-0.202
same,glycan array binding signal (z-score),[25],-0.17
same,glycan array binding signal (z-score),[26],-0.222
same,glycan array binding signal (z-score),[27],-0.173
same,glycan array binding signal (z-score),[28],-0.212
same,glycan array binding signal (z-score),[29],-0.091
same,glycan array binding signal (z-score),[30],-0.222
same,glycan array binding signal (z-score),[31],-0.237
same,glycan array binding signal (z-score),[32],-0.311
same,glycan array binding signal (z-score),[33],-0.094
same,glycan array binding signal (z-score),[34],-0.244
same,glycan array binding signal (z-score),[35],-0.081
same,glycan array binding signal (z-score),[36],-0.247
same,glycan array binding signal (z-score),[37],-0.121
same,glycan array binding signal (z-score),[38],-0.247
same,glycan array binding signal (z-score),[39],-0.124
same,glycan array binding signal (z-score),[40],-0.205
same,glycan array binding signal (z-score),[41],-0.245
same,glycan array binding signal (z-score),[42],-0.224
same,glycan array binding signal (z-score),[43],-0.018
same,glycan array binding signal (z-score),[44],-0.208
same,glycan array binding signal (z-score),[45],-0.276
